In paper PMC10726135:
This is one part of the list. At the low end of the ranking the order means little. Measured with an extract: partners may take part in the binding.

target: T1, HNF4alpha2 (COS-7 nuclear extract) (UniProt P41235); assay: protein-binding microarray; settings: COS-7 nuclear extract on double-stranded Agilent 4x180k PBM; binding buffer, salt, pH and temperature not given; high values mean tight binding; double strand, one strand shown; sequences stand for … in …GCCTAGGGAGATTAGAGTATCGGTCGA
T1 sequence: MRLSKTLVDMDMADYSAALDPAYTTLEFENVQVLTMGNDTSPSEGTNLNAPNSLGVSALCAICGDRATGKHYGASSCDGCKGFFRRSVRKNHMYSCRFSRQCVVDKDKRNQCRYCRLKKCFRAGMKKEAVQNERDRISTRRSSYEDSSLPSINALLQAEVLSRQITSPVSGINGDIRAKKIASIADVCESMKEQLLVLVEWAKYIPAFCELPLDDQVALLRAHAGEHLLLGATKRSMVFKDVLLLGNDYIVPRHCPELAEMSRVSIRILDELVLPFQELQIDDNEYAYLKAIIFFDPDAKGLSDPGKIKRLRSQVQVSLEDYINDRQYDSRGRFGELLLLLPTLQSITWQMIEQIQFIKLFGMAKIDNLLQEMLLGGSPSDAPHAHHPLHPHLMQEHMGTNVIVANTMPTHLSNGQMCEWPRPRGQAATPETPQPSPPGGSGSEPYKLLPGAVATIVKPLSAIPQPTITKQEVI

Row | Sequence | binding signal (log2 normalized intensity)
1 | ATTTCACAGCAACCTCAGACCTCTCCCGCC | 1.47
2 | CCACATACAAGTCACTCTTCATTTCCCTCA | -1.08
3 | CTTGTCTGGCCTTCCTGGCCCTAGCTGGGT | 0.579
4 | CGCCGCATCTACCAGCGTAATTCTGGCTCT | -1.08
5 | TGCTGGAATGAAGACTCACATCTATCTCCC | -0.596
6 | TACCAGGAATATTGCCCCCTAATGGTATTT | 3.16
7 | AAAGTCTTTCTCTTTCAAGATAACAAGGCA | 1.37
8 | TTGGCCCTCAGCCCAATGTGGTAGGATGGC | 0.097
9 | ATAACATGAGGTAGAGGGACACTGATAACA | -1.13
10 | GTTGTACCTGACTAAAACCTGCTGCAGGAG | -1.1
11 | GCTCCCCCAGTGAGCAATTCTTGTCCCTTT | 2.85
12 | AGCCAAGATTACAGCCACATGCTAACACAC | -1.15
13 | GCAGCCCAGCAAAGAGGGTCAAAGCCCAGG | -1.05
14 | AGGGGGGTGGGCACCCCTGCCCCCATGTTG | 2.97
15 | AGCAGGGGGCGCAGAAGGGATGGGAACCGA | -1.28
16 | AAACTGTTATCTCTCAACTCAGTGAGGGCT | -0.882
17 | AAACCCACGCCCACCCTATTGATGCAAGGA | 2.16
18 | GCACGCACACCGAGCACGGTGCAGGGAGGA | -1.11
19 | TAATGATTTGTAAATCTCTAGTCCCAGCCT | -1.26
20 | TTCATCCTGAGAGGGCTCAAGGTCTGCATG | 1.29
21 | GCCGGTTCCCGCCCAAGGAGACAGGCTTTG | -1.11
22 | AGACACGCCTTGCACAAATTTCAGATATCT | -0.77
23 | GTAGTGGTTGAATTTCAGAGGGAAGAGGAA | -0.562
24 | GCCCCACTGGGGTGGAGATGCCGTCGGCAC | -1.07

Row | Sequence | binding signal (log2 normalized intensity)
25 | CCTTAAAGCATGACAAAATAACGAAGGCAT | -0.565
26 | CTCTACTGTCCATCTTTTGCCCCTCTTATG | 3.46
27 | ATTTTGCTCTTTGTACCGTTTGAACAGCCA | 2.36
28 | CTCCAGGGGACTGCCTCTTCAGGAGGCACT | -1.11
29 | CGCGCGTGTGGATACGATGACATCATCTGT | 1.11
30 | ATTTCAAACCTTTGCCCCACTCTCCTCTGC | 3.44
31 | AGACTTTGGACCTGGCCCTCTGGGTTGGAA | 4.9
32 | CTGGAGTCCAAAGGTCAGCAAGCCTGGAGT | 6.88
33 | GTAAATATGACCTTTGCTTTTCAAGATTTT | 3.28
34 | TCCAGCCAGGTTGCATCAGCTGGGCTCGGC | -1.21
35 | ATGATGAAAGCAATGTTTGAGGAAGATTAG | -0.61
36 | TGCCTGGGTCCTGGGAGCAAACCCCAGCTG | -0.985
37 | CTGCGTTTTTTCCGAACGCCAGCAGCAGGG | -1.2
38 | CCCCTTCTTAACATCAGAAGTTGGACTTTG | 7.59
39 | AACTAAAAGTATCTAAGGGCCTAGAAGAGT | -1.12
40 | CTATAGTTATCTCTGCTGATAGCATAAAGC | -0.207
41 | GGGGAAGCTGTTGGGCGCCGGAACTGGTCC | -1.06
42 | CTCCTGGACTTTGGTCTCATGGGCCTAAAC | 4.65
43 | GGGTTGGCATGCATATGAGTAATGTGAAGA | 0.627
44 | TCCTTATTTATCTTCCAGCGGGTGCTTAAA | -0.113
45 | TGTTTGTAAACTGTCATGGTGCTGGCGGGA | 1.53
46 | GAGTGCTTTCATCTTTGCGGTGAGCATTTG | 1.48
47 | AGGGAGGCAGCCACCTAGGCCGGTCAAGTC | -1.07
48 | CATATCTGGAATTTCAAAGGGAGCATATGT | 1.51

Row | Sequence | binding signal (log2 normalized intensity)
49 | AATCTTCATTCCTCAAATGCTCCTTTGAAC | 2.54
50 | GTGGCAGGCACTTAGCAAATATTTACTGAA | -1.11
51 | CTTATACGTGGAAGAAACTCATCTCCAGAT | -0.677
52 | GCATGACTTGTTATCACCTGCTGGAATGTT | 1.62
53 | TCAAATCCCCTAGGTGATTAGAAGATAGCT | -0.992
54 | CCTTCAGTTCTTATCTCGTACTTCTGTTGT | 1.95
55 | GAAAGGATCTCACCCAAACCATCCCAGGCA | 3.26
56 | GAGTCTCCTGGGTAATCACCAAACTTCACA | -1.06
57 | ACTGTAAGATCAAGATTAAGAAGAGCAGCT | -1.17
58 | CCGACCCGCCCGACTACAACAGCCTTGCAG | -0.785
59 | TTGAAGAAATGGTGGACTTTGTAGCTCAAA | 3.83
60 | GACTTCCATTGTGTTGCAGATGATCAAGAG | 1.57
61 | ATCTTCCTCCCCCCTTGGCTACATGTTTGT | 3.7
62 | GTGCTGACCTCCTGTCTCATCCTGTGACCA | 1.42
63 | CTCAACTCCCTCTGAAGGGAGGGCCAAGCC | -0.0612
64 | TGTACTAATGATTTGTAAATCTCTAGTCCC | 0.557
65 | ATGTCTCAAGATATCTATATGTTTACATAT | 1.87
66 | CCCAGATGCACGTGCTCCAGGAGGGGAGGA | -0.997
67 | GGACAGTGGTCTTTATGACTTGGGTGCACC | 2.02
68 | ACAGTAGGCTCTAGATGTCTCAGTAGATAA | -1.14
69 | AAGACTGAGCAGCTGGAGGGGGACTGGAAG | -1.08
70 | ATTTCATAGACTGTCCCTCAGTGTGGGACT | 0.649
71 | CAGAGGAGATCAGAGGAGGCACTTGTCTCA | -1.11
72 | TGGTTTACATTCTTAGAAGATAAAGTGTCT | 0.541

Row | Sequence | binding signal (log2 normalized intensity)
73 | TGTGCTGAAAAGACTTCACAATCAATTCCA | -1.22
74 | GCTGGTGGGTGGGGGAAGTGTGGTCAAGGG | 0.986
75 | CTCAAGTGACCTTTGACCTCTGGCCTTTGC | 10.2
76 | CAGAAAAATGGAGCAGCTCTGTATTGAGAT | -0.99
77 | TACATTGGACAACTGTACTTTGGACTGGGG | 5.99
78 | ATTTAAGCTTGAGACAAAGGAAACTGATTG | 0.161
79 | AAGGAAGGTGCTTATCAGAGCAAGAGATGG | -0.922
80 | GTCCTTGATAAGCAAGATGACTTTGGTCTA | 1.78
81 | ACAGCAGTGGACTTTGACCTTGGCACTGAA | 9.07
82 | GCATCTCATTACTGACAGAGATCAAAAACC | 0.00616
83 | CATCTACCAGCGTAATTCTGGCTCTTTGAG | 0.87
84 | GCCTAGGAAAACCAGAGACCTTTGTTCACT | 2.89
85 | GCGTGGTGGCCTGTGCCTGTAGTCCCAGCG | -1.12
86 | GATCCCTTATTTGCATGAAGCACAAAGGTT | 2.4
87 | CCTGTACACGGTTCTTGACCTGTGATAAGA | 2.41
88 | ATGATTTCAGCTTATAAATCTTCAACTGGA | 0.456
89 | GATCAGAAATGTTTGGAATTCCACAGCAGA | -0.681
90 | CAGTGGGCCCAGAGCACAACCTTTGGCCGT | 4.45
91 | CCCTCCATGTAACCCCTTTTCAATTCCTTA | 1.41
92 | CCTGTACCTAGAATTCTTTCACTCCCTTTT | 1.12
93 | GTCCTTCCAAAGTCCTTCTAAAGCAAATTT | 1.45
